Drawing on the RNAGym collection of RNA variant scans (doi:10.7554/elife.90254), this text covers self-cleavage for 167 variants.

The source gives no read counts; variants with many changes may rest on few reads.

Sequences and labels used below:
B1: LINE1-mini (parent)
chain: GGCAGAGCUCAACACAGCGUGGCAAAGUGGCUGUGGCUAGACUGCC

This series covers variants of B1. The experiment in a line: self-cleavage, relative activity (ratio to wild type); higher = more cleavage; in vitro, sequencing; the parent is a self-cleaving ribozyme.
With G2C A6C U9A G19C G29A C31U C37A, the self-cleavage amounted to 0.03. In the case of G2A G33A G44U, the self-cleavage stood at 0.42.

With G2A G17U G27C, the self-cleavage worked out at 0.06. With G2C G17U C18G A26C, the self-cleavage came to 0.07.

For the variant G2A G5U A11G C18G G33U G35A, the self-cleavage amounted to 0.

Regarding G2C A16G A25U, the self-cleavage was determined as 0.23. As for G2C C23U A24U C45G C46G, the self-cleavage turned out to be 0.2.

G2A G7A A14G C18A U38G: the self-cleavage worked out at 0.13. Turning to G2A G5U C13G C15U, the self-cleavage came out at 0.17.

For G2C C10A G17A G21U G36C, the self-cleavage was determined as 0. As to G2C C3G G22C G36A, the self-cleavage turned out to be 0.02. For G2C C3U G29C A41G, the self-cleavage is 0.02.

With G2C A6G U32A C45U, the self-cleavage was 0.03. The value for G2C A6C C13U C15G A26U A39U was 0.02; that for G2A G7C C10U was 0.07. Regarding G2C C3U A14U G22C A39G, the self-cleavage is 0.03.

Consider G2C A26C A41U, for which the self-cleavage stood at 0.18. With G2A U20C C23A A24C, the self-cleavage worked out at 0.25.

On to G2C C3U C37U, for which the self-cleavage turned out to be 0.02. Consider G2A G19A G44U, for which the self-cleavage amounted to 1.6.

G2C C13U U28C U38G: the self-cleavage was 0.01. In the case of G2C C10A U43A G44C, the self-cleavage worked out at 0. In the case of G2C C23U G29A, the self-cleavage was determined as 0.2.

Consider G2C C8G G21U G22A C42G C46U, for which the self-cleavage stood at 0.66. As for G2C A12U C15U G36A A39U G40U C42U, the self-cleavage worked out at 0.08. As for G2C C3U C15U A41C, the self-cleavage was found to be 0.46.

With G2C G7A C23G G30C, the self-cleavage was found to be 0.34.

For the variant G2C C8A A12U G17A A26U G29U, the self-cleavage was found to be 0.21. In the case of G2C A4G G22C G30A G40U it was 0.04; in that of G2C A4C A11U U20C G29C, 0.02; in that of G2C G5A G17A C31U A41U C45G, 0.04.

For the variant G2C C8G A41U C45U, the self-cleavage stood at 0.14. In the case of G2C A4U C10G G22A A25G U34A G36A it was 0.02; in that of G2C C3U A16U C18G C23U, 0.05.

On to G2C C15G C31A G36U, for which the self-cleavage worked out at 0.02.

Consider G2A C18G G30A G44C, for which the self-cleavage came out at 1.34. Turning to G2C G17A U38G, the self-cleavage came to 0.07.

For G2C C15U A25C G35C C45A, the self-cleavage came to 0.1. Take G2C C31G G36U: the self-cleavage came out at 0.24. In the case of G2C A26C G27U, the self-cleavage was 0. With G2C C3U C37U C46A, the self-cleavage amounted to 0.05. For the variant G2C A6C C8A A26U C31A, the self-cleavage was 0.14. In the case of G2A G21C C23A A24U G29A U34C G40U C42A it was 0.16; in that of G2A G30C C31A C46A, 0.14; in that of G2A C23A A24C, 0.98. As for G2C C13U G19U A24C C31A, the self-cleavage is 0.06. As for G2C C10U A14C A25C, the self-cleavage is 0.03. For G2C A6C G35U, the self-cleavage was 0.33. As for G2A C18U A26G, the self-cleavage was found to be 0.8. Turning to G2C C15U G36A, the self-cleavage turned out to be 0.15. For the variant G2A C37G A41C G44U C45G, the self-cleavage was determined as 0.06. In the case of G2C A16C G29C G33C, the self-cleavage came to 0.02. As to G2C A6C G19A G22U, the self-cleavage turned out to be 0.31.

In the case of G2A G21A U28G, the self-cleavage is 2.71. Turning to G2C G7U C8U A41U, the self-cleavage amounted to 0.18. As to G2A C37A G44U, the self-cleavage came to 0.3. On to G2A G7C G29A, for which the self-cleavage amounted to 0.25. In the case of G2A U9A C31U U32C it was 0.25. The value for G2A U9A G40U was 0.14; that for G2A U20C G22C A24C was 0.09; that for G2A G19U A24C U32G G35A was 0.17.

Take G2C G17C U20A G21C C23U A39U C42A: the self-cleavage is 0.02. Turning to G2C C3U C15G A26U, the self-cleavage turned out to be 0.02.

Consider G2C C23G U34A, for which the self-cleavage worked out at 0.05. For G2C C3A C8A G30C, the self-cleavage stood at 0.04. Regarding G2C C3U G17U C46A, the self-cleavage came out at 0.04. For the variant G2C A24C A26C G27C A39G, the self-cleavage is 0.16.

Turning to G2C A14U G44A, the self-cleavage worked out at 0.04. In the case of G2A C23A C37A C42A, the self-cleavage worked out at 0.13. Consider G2C A11C G19A G33U C42G, for which the self-cleavage came to 0.

Turning to G2A G17U G27A G30A, the self-cleavage stood at 2.42. With G2A G17U G40U, the self-cleavage amounted to 0.11.

Consider G2A G17U G40C, for which the self-cleavage stood at 0.24.

Take G2A G36C A39G C45G: the self-cleavage was determined as 0.11. With G2A G17U U20C U38A, the self-cleavage stood at 0.15.

As for G2A U9G A11G A25G A39G C45U, the self-cleavage turned out to be 0. As for G2C C10A C15U G30C, the self-cleavage stood at 0.04.

On to G2C C10A G21C, for which the self-cleavage amounted to 0.03. Take G2C G7A U9C U32A C37U: the self-cleavage amounted to 0.02. Take G2A U9G C23U A24C C45G: the self-cleavage amounted to 0.02.

In the case of G2C G7C U38G, the self-cleavage amounted to 0.01. As to G2C A16G C18U U43A G44U C45U, the self-cleavage was determined as 0.

Turning to G2A G5U G22C, the self-cleavage was determined as 0.08. In the case of G2C A4U C37U U38A, the self-cleavage was 0.06. As to G2C C3A C8U C10A C45G, the self-cleavage was found to be 0.04. The value for G2A U28G A39C A41G was 0.1; that for G2A G29U G40C C45A was 0.1. For the variant G2C C13G G29U G33A U34G U43C G44C, the self-cleavage worked out at 0.01.

For the variant G2A G22A G36U, the self-cleavage amounted to 0.06. In the case of G2A C31U U43A, the self-cleavage was 0.24. For the variant G2C C3A A14C C15G G29U U32A, the self-cleavage turned out to be 0.

Regarding G2A G7U U28G, the self-cleavage came to 0.06. Consider G2C A16G G17C, for which the self-cleavage was determined as 0.03.

On to G2C C3U A4G G19U, for which the self-cleavage is 0.1.

On to G2C C13U A25U U28A A41U, for which the self-cleavage was found to be 0.02.

G2C C23A G29U: the self-cleavage stood at 0.19.

Regarding G2A G5A C10A A41U U43A, the self-cleavage turned out to be 0.02. The value for G2A G7C A14G G27U was 0.2.

On to G2C C10U A11G A14G G30U U34G G36U, for which the self-cleavage turned out to be 0.01. With G2A G7C A16G G40A, the self-cleavage was 0.04. As for G2C C18A U32G, the self-cleavage amounted to 0.03. As to G2C C13G A25U, the self-cleavage worked out at 0.15. With G2C C23A G36A U43G, the self-cleavage turned out to be 0.

On to G2A U9A C18U C42G, for which the self-cleavage came out at 0.19. With G2C C3U C13A A41G, the self-cleavage turned out to be 0.12. Regarding G2C A11C C18A G30U G36C, the self-cleavage was 0.04.

Consider G2A C23U U34G C37A, for which the self-cleavage stood at 0.52. On to G2C C13U A26G G29A C37A G44U, for which the self-cleavage was found to be 0.03. The value for G2C C10U G29C G40C A41C U43A was 0.01.

For the variant G2C A6U C18U, the self-cleavage was 0.02. In the case of G2A G5C C13G C15A it was 0.07; in that of G2C A14G G29U G30A, 0.03. Turning to G2C A12C U38C C46U, the self-cleavage stood at 0.04. As to G2C C3U G7U G22U G27A, the self-cleavage is 0.22. In the case of G2C G19C G33C U38C G44U it was 0; in that of G2C C13U G21C C42A, 0.19.

Consider G2A G5C U34G, for which the self-cleavage was 0.03.

Consider G2A G5U C18A G21C, for which the self-cleavage is 0.24. With G2C C15U G19A C31U, the self-cleavage stood at 0.02. For G2A G22A G33U, the self-cleavage came out at 0.

In the case of G2A G7A C15G G21U, the self-cleavage was 0.36. As to G2C C3G G5C C23G U34G, the self-cleavage turned out to be 0.05. Turning to G2C C10G A14U G30C C46A, the self-cleavage was 0. In the case of G2A C23U A26C G40A C46G it was 0.21; in that of G2A G7A C15A U32C G36C, 0.17; in that of G2A G29A A39U, 2.06. With G2C C18U A41C, the self-cleavage was found to be 0.03. With G2C G5U A16C, the self-cleavage amounted to 0.01. On to G2C A6C U20C G29U G30A, for which the self-cleavage was 0.04.

As for G2A U20C G22C A41G, the self-cleavage is 0.06. Take G2C C31U G36A C42A C46A: the self-cleavage was 0.15. In the case of G2C G5U A12U, the self-cleavage was found to be 0.02. In the case of G2A G21A A39U it was 0.78. Turning to G2C A4C C13A A14U A16G U38A C46G, the self-cleavage amounted to 0.02. Consider G2C G17C A25U G27C G30C, for which the self-cleavage came out at 0.03. G2C C3U A24C G33U: the self-cleavage is 0.04. Regarding G2C A11C A16C, the self-cleavage is 0. Regarding G2C G5U C8U C10G A14G, the self-cleavage was 0.01.

On to G2C A12C C23A, for which the self-cleavage was found to be 0.04.

With G2C C23A A24C G40A, the self-cleavage worked out at 0.02. With G2A G35U C42U, the self-cleavage is 0.07. Take G2C C13G U20A: the self-cleavage stood at 0.01.

Regarding G2C A12C G22C, the self-cleavage came out at 0.03. G2A U20G C37G: the self-cleavage was found to be 0.11. On to G2A C23G G35A U38C, for which the self-cleavage was found to be 0.07.

As to G2A G22A A26G G36C G40U, the self-cleavage worked out at 0.05. For G2A G7A C18U, the self-cleavage was found to be 1.93. Consider G2A C18G G21A C31A, for which the self-cleavage worked out at 0.1.

For the variant G2C A4C G17U, the self-cleavage worked out at 0.51. The value for G2C A4C C10G C45G was 0.03. With G2C A14U C15G A24C G29A, the self-cleavage worked out at 0.02. The value for G2C A16U G19C G27U was 0.01. As to G2A G30U G36C C46A, the self-cleavage is 0.02.

For G2C C8G G17C, the self-cleavage was found to be 0.26. In the case of G2A G5C A6U U9C it was 0.06; in that of G2A G7A C8G G40A, 0.2. On to G2C G7A C8U C10A U28C C37U, for which the self-cleavage was found to be 0.01.

With G2A G7A A14C G30C, the self-cleavage is 0.13. G2A U9G G33U G35C C42G: the self-cleavage came to 0.07. Regarding G2C A25C C31G, the self-cleavage stood at 0.06. In the case of G2A G35A G40C it was 0.14. The value for G2C A11C G22U U34A G44C was 0.01; that for G2A G17A A41C was 0.26; that for G2A C18A A26G C45G was 0.14.

Take G2C A14G G17A C31A G36U: the self-cleavage was determined as 0.04.

Turning to G2A G5C U34G G40U, the self-cleavage was found to be 0.06. In the case of G2C A6G C13A C23U G33A G44U it was 0.03.
